Measurements published in the supplement of paper PMC7826260.
Some of the results follow. One pool of 16,384 single-stranded DNAs met each Rep nickase domain in vitro at 3 µM enzyme and 37 °C for 1 h; the strands have 90 letters, of which the middle is given. Values are log2 of uncut reads against the no-enzyme pool; uncut sequences lie near 0, cut ones below; no hit call is given. Shares of all reads are compared, so uncut sequences can rise above 0 when many others are cut.

What was measured:
Assay in all cases: uncleaved DNA left, log2 of reads against the no-enzyme library (log2 ratio); higher = less cleavage (more negative = more Rep cleavage of the k-mer); sequences stand for … in CTCGTCCG…ACCGGAGA
[1] = tested on: T1, Rep nickase domain of Muscovy duck circovirus
T1 sequence (protein, residues 1-111, tag omitted): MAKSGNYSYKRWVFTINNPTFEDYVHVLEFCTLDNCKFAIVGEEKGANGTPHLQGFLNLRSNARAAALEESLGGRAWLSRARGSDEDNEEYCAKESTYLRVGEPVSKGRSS
Experimental: (§1)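 A pool of 90-nt single-stranded DNAs with seven random bases just before the constant AC of the nick site (name = the seven bases) was cut by 3 µM recombinant His6-SUMO-tagged Rep nickase domain (300 nM DNA, 50 mM HEPES pH 8.0, 50 mM NaCl, 1 mM MnCl2, 1 h, 37 °C, three replicates). Uncut DNA was amplified and sequenced.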

[2] = tested on: T2, Rep nickase domain of banana bunchy top virus
T2 sequence (protein, residues 1-94, tag omitted): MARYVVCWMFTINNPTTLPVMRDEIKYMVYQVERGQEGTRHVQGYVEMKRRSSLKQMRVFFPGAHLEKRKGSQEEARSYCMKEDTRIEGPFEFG
Experimental: as §1

[3] = tested on: T3, Rep nickase domain of cabbage leaf curl virus
T3 sequence (protein, residues 1-116, tag omitted): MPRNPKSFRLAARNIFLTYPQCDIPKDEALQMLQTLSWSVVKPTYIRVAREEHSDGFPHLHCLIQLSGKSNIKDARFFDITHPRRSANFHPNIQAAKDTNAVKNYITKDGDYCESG
Experimental: as §1

[4] = tested on: T4, Rep nickase domain of chickpea chlorotic dwarf virus
T4 sequence (protein, residues 1-124, tag omitted): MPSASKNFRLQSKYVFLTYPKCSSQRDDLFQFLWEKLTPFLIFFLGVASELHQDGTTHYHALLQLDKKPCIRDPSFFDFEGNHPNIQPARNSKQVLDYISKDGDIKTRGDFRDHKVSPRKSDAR
Experimental: as §1

[5] = tested on: T5, Rep nickase domain of faba bean necrotic yellows virus
T5 sequence (protein, residues 1-98, tag omitted): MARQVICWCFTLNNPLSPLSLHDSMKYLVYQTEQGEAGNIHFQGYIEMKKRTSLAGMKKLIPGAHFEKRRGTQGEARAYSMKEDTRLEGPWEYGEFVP
Experimental: as §1

[6] = tested on: T6, Rep nickase domain of maize striate mosaic virus
T6 sequence (protein, residues 1-117, tag omitted): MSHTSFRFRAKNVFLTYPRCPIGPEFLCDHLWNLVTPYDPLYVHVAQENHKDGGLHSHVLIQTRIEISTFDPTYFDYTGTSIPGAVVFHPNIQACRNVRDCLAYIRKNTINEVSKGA
Experimental: as §1

[7] = tested on: T7, Rep nickase domain of porcine circovirus 2
T7 sequence (protein, residues 2-116, tag omitted): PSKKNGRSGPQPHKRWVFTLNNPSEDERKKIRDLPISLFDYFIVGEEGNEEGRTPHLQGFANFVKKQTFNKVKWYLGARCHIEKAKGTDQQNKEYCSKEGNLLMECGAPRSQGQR
Experimental: as §1

[8] = tested on: T8, Rep nickase domain of tomato golden mosaic virus
T8 sequence (protein, residues 1-124, tag omitted): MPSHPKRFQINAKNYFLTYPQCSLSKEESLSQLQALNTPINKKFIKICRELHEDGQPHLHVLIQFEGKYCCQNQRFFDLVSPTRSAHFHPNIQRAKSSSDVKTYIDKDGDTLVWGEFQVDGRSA
Experimental: as §1

[9] = tested on: T9, Rep nickase domain of tomato yellow leaf curl virus
T9 sequence (protein, residues 1-136, tag omitted): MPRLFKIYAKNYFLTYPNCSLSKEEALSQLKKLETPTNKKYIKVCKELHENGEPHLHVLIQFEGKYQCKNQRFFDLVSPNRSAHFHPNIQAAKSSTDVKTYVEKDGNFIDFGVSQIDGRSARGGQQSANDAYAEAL
Experimental: as §1

[10] = tested on: T10, Rep nickase domain of wheat dwarf virus
T10 sequence (protein, residues 1-137, tag omitted): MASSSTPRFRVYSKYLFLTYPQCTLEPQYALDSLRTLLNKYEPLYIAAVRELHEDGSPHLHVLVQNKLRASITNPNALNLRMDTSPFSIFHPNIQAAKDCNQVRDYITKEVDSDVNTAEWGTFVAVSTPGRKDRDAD
Experimental: as §1

Sequence | uncleaved DNA left (log2) [1] | uncleaved DNA left (log2) [2] | uncleaved DNA left (log2) [3] | uncleaved DNA left (log2) [4] | uncleaved DNA left (log2) [5] | uncleaved DNA left (log2) [6] | uncleaved DNA left (log2) [7] | uncleaved DNA left (log2) [8] | uncleaved DNA left (log2) [9] | uncleaved DNA left (log2) [10]
CCAGGCT | 0.0144 | 0.00896 | 0.11 | 0.325 | -0.0598 | 0.17 | 0.085 | 0.161 | 0.0353 | 0.053
CGGCCTG | -0.0227 | -0.0137 | -0.0576 | 0.467 | -0.0186 | 1.57 | -0.05 | -0.181 | -0.161 | 0.000705
TTGTACC | -0.508 | -0.145 | -0.0382 | -0.778 | -0.131 | -0.354 | -2.81 | -0.163 | -0.107 | -0.178
AAATAGG | 0.0312 | -0.0235 | 0.000682 | 0.674 | -0.0191 | -0.18 | -0.0157 | -0.00611 | -0.0841 | -0.0275
AAACTCT | 0.0142 | -0.0989 | -1.58 | -2.95 | 0.0693 | -0.882 | -0.588 | -0.117 | -0.104 | -0.707
CCATACA | -0.293 | -0.0501 | -0.239 | -2.29 | -0.041 | -1.05 | -0.135 | -0.0733 | -0.0546 | -0.131
TGTCAGC | -0.0821 | -0.00691 | 0.0717 | -0.17 | 0.0215 | -0.53 | 0.0816 | 0.0331 | 0.0713 | 0.0163
CATTATT | -4.7 | -4.2 | -3.8 | -3.62 | -3.75 | -2.44 | -4.12 | -3.85 | -0.126 | -3.74
GGGTACC | 0.166 | 0.202 | 0.792 | 1.8 | 0.117 | 2.18 | 0.26 | 0.000506 | 0.0431 | 0.206
AGTGCGC | -0.0149 | -0.0321 | -0.762 | -0.119 | 0.109 | -0.692 | 0.221 | -0.08 | 0.0765 | -0.0774
GGAGAAC | 0.0557 | 0.174 | 0.881 | 1.89 | -0.0112 | 2.17 | 0.193 | 0.127 | 0.123 | 0.164
CGGTATA | 0.0221 | -0.0328 | 0.0789 | -0.357 | -0.00547 | 0.355 | -0.0518 | -0.0166 | 0.0999 | 0.101
ATAAGCA | 0.0896 | 0.114 | -0.81 | -1.84 | 0.0823 | -1.08 | -0.00672 | 0.0482 | 0.0521 | -0.0419
GTCTCCC | -0.0714 | -0.143 | 0.245 | 0.546 | -0.0433 | 1.54 | -0.506 | -0.147 | -0.156 | 0.0327
TACCAAT | 0.00755 | 0.0694 | -0.233 | -2.55 | -0.0534 | -0.535 | -2.28 | -0.146 | 0.0337 | 0.0844
GCTGAAG | -0.0403 | -0.0467 | -0.632 | -0.491 | 0.0638 | -1.04 | 0.0869 | 0.00874 | -0.0193 | -0.107
CGGGCGC | -0.0952 | 0.0308 | -0.102 | 0.0551 | 0.036 | -0.0192 | 0.127 | 0.0626 | -0.0434 | 0.0057
AGTTATC | 0.0152 | -0.135 | 0.27 | 0.792 | -0.133 | 0.194 | -0.113 | -0.0586 | 0.0574 | 0.101
ATGGAGG | 0.116 | -0.0305 | 0.101 | 0.528 | 0.0857 | -0.1 | 0.145 | 0.109 | -0.0698 | 0.0431
GGTTTCC | -0.108 | -0.0805 | 0.319 | 0.907 | -0.0635 | 1.61 | -0.0281 | -0.1 | -0.0153 | 0.0469
ACTCTCG | 0.0406 | -0.101 | -0.623 | 0.159 | -0.00446 | -0.569 | 0.115 | 0.0256 | -0.035 | -0.0644
GTCGGGA | 0.0633 | -0.0128 | 0.398 | 0.934 | -0.039 | 1.47 | 0.0343 | 0.0422 | 0.0344 | 0.125
GGTACTA | 0.0171 | 0.0716 | 0.708 | 1.61 | 0.0346 | 2.14 | 0.0883 | -0.0267 | 0.128 | 0.192
AAGCTAG | 0.218 | 0.118 | 0.187 | 0.836 | 0.0666 | 0.554 | 0.32 | 0.219 | -0.0551 | 0.155
TCAGGAC | 0.0869 | 0.0923 | 0.422 | 1.34 | 0.138 | 1.29 | 0.299 | 0.251 | 0.181 | 0.134
GTAGCGT | 0.13 | 0.0433 | -0.544 | -0.702 | -0.0475 | -0.65 | 0.139 | 0.00965 | -0.00684 | -0.011
GCGGTGG | 0.101 | -0.0451 | -0.0988 | 0.312 | -0.0584 | 0.439 | -0.0127 | -0.0371 | -0.0461 | -0.196
TCTAGAG | 0.00182 | -0.116 | -0.402 | -0.61 | -0.00975 | -1.19 | 0.11 | 0.00352 | 0.00444 | -0.0525
ACTGACA | -0.0799 | 0.0401 | -0.0168 | 0.37 | -0.00476 | 0.502 | -0.0577 | -0.025 | 0.0321 | 0.152
TTCACGA | -0.0117 | 0.0312 | 0.166 | 0.0355 | -0.0311 | -0.247 | 0.0323 | 0.023 | -0.108 | -0.138
